Experimental data taken from PubChem BioAssay AID330 (DTP/NCI, 2004).
Inconclusive results and toxic doses are left out. Some entries of the source have several records that differ or are many. This list holds those alone. The source may hold further records. The values listed for one entry are repeats (runs, samples, wells, individuals or studies). Marks in square brackets tell the records apart. Letters count within one entry.

Tested on: P388 leukemia ip, CD2F1 mice, survival T/C
Test: NCI In Vivo Anticancer Drug Screen. Data for tumor model P388 Leukemia (intraperitoneal) in CD2F1 (CDF1) mice
Conditions: endpoint: median survival time, higher = longer survival
[1] = dose: 12.5 mg/kg/injection, schedule: Q04DX002 (ip), vehicle: saline with Tween-80
[2] = dose: 25.0 mg/kg/injection, schedule: Q04DX002 (ip), vehicle: saline with Tween-80

For `O=C1CN(CN2CCOCC2)C(=O)CN1CN1CCOCC1`, the T/C (dose: 100.0 mg/kg/injection, schedule: Q01DX009 (ip), vehicle: saline) was 109 % of control and 155 % of control and the T/C (dose: 200.0 mg/kg/injection, schedule: Q01DX009 (ip), vehicle: saline) was 123 % of control and 150 % of control.

With `O=C1NC2C(=CC(O)C(O)C2O)c2cc3c(cc21)OCO3` (stereo not drawn) the T/C (dose: 12.5 mg/kg/injection, schedule: Q01DX009 (ip), vehicle: saline + alcohol) was 119 % of control and 161 % of control.

For `CCn1c(C)c(COC(=O)NC)c(COC(=O)NC)c1-c1ccc(Cl)c(Cl)c1`, the T/C (dose: 25.0 mg/kg/injection, schedule: Q01DX009 (ip), vehicle: distilled water + Tween-80) was 92 % of control and 172 % of control.

For `CCCCOP(=O)(N1CC1(C)C)N1CC1(C)C` (stereo not drawn), the T/C (dose: 16.0 mg/kg/injection, schedule: Q01DX009 (ip), vehicle: saline) was 123 % of control and 182 % of control and the T/C (dose: 80.0 mg/kg/injection, schedule: Q01DX001 (ip), vehicle: saline) was 121 % of control and 162 % of control.

`C=C1COC(O)(C2OCOC(C3CC(=O)NC(=O)C3)C2O)C1C` (stereo not drawn) was tested, and the T/C (dose: 0.01 mg/kg/injection, schedule: Q01DX009 (ip), vehicle: water) was 171 % of control [sample A] and 101 % of control [sample B], the T/C (dose: 1.87 micrograms/kg/injection, schedule: Q01DX009 (ip), vehicle: water) was 109 % of control [sample A] and 157 % of control [sample B] and the T/C (dose: 3.75 micrograms/kg/injection, schedule: Q01DX009 (ip), vehicle: water) was 110 % of control [sample A] and 161 % of control [sample B].

`[Cl][Pt+2][Cl].[NH-]C(c1ccccc1)C([NH-])c1ccccc1` (stereo not drawn) was tested, and the T/C [1] was 120 % of control, 121 % of control, 122 % of control [sample A] and 161 % of control [sample B] and the T/C [2] was 121 % of control [sample A] and 164 % of control [sample B].

`CN(C)N=Nc1ccc(S(=O)(=O)Nc2ncccn2)cc1` was tested, and the T/C (dose: 100.0 mg/kg/injection, schedule: Q04DX003 (ip), vehicle: saline with Tween-80) was 95 % of control and 157 % of control and the T/C (dose: 200.0 mg/kg/injection, schedule: Q04DX003 (ip), vehicle: saline with Tween-80) was 91 % of control and 169 % of control.

`COc1cccc2c1C(=O)c1c(O)c3c(c(O)c1C2=O)C[C@@](O)(C(=O)CN1CCOCC1)C[C@@H]3OC1CC(N)C(O)C(C)O1` (stereo partly drawn) was tested, and the T/C (dose: 6.25 mg/kg/injection, schedule: Q01DX009 (ip), vehicle: water) was 120 % of control and 168 % of control and the T/C (dose: 12.5 mg/kg/injection, schedule: Q01DX009 (ip), vehicle: water) was 117 % of control, 157 % of control, 179 % of control.

With `CO[C@H]1C[C@](C)(O)Cc2cc3c(c(O)c21)C(=O)c1c(O)cc2c(c1C3=O)O[C@@H]1O[C@@]2(C)[C@H](O)[C@@H](N(C)C)[C@@H]1O` the T/C (dose: 100.0 mg/kg/injection, schedule: Q04DX003 (ip), vehicle: other) was 100 % of control and 193 % of control and the T/C (dose: 200.0 mg/kg/injection, schedule: Q01DX001 (sc), vehicle: other) was 103 % of control and 156 % of control.

With `[O-]c1cc2c3c(c1)c1cc4c(cc1c[n+]3C=C2)OCO4` the T/C (dose: 50.0 mg/kg/injection, schedule: Q01DX009 (ip), vehicle: other) was 88 % of control and 152 % of control.

`COc1cccc2c1C(=O)c1c(O)c3c(c(O)c1C2=O)C[C@@](O)(/C(CO)=N/NC(=O)c1ccccc1)C[C@@H]3OC1CC(N)C(O)C(C)O1` (stereo partly drawn) was tested, and the T/C (dose: 16.0 mg/kg/injection, schedule: Q01DX009 (ip), vehicle: water) was 114 % of control and 375 % of control.

In the case of `Cc1ccc(C(=O)NC2C(=O)NC(C(C)C)C(=O)N3CCCC3C(=O)N(C)CC(=O)N(C)C(C(C)C)C(=O)OC2C)c2c1Oc1c(c(C(=O)NC3C(=O)NC(C(C)C)C(=O)N4CCCC4C(=O)N(C)CC(=O)N(C)C(C(C)C)C(=O)OC3C)c3nc(-c4ccccc4)c(=O)oc3c1C)N2` (stereo not drawn), the T/C (dose: 0.5 mg/kg/injection, schedule: Q01DX005 (ip), vehicle: water) is reported as 90 % of control and 159 % of control.

`CC([NH-])CC(C)[NH-].[Cl][Pt+2][Cl]` (stereo not drawn) was tested, and the T/C (dose: 3.12 mg/kg/injection, schedule: Q04DX002 (ip), vehicle: saline with Tween-80) was 123 % of control [sample A] and 169 % of control [sample B], the T/C (dose: 6.25 mg/kg/injection, schedule: Q04DX002 (ip), vehicle: saline with Tween-80) was 170, 105, 168, 160 % of control [separate samples] and the T/C [1] was 196 % of control [sample A] and 163 % of control [sample B] and 88 % of control [sample C].

With `CCCCOc1ccc(-c2c(COC(=O)NC)c(COC(=O)NC)c(C)n2C)cc1` the T/C (dose: 60.0 mg/kg/injection, schedule: Q01DX009 (ip), vehicle: distilled water + Tween-80) was 90 % of control and 171 % of control.

For `O=S(=O)(O)O.[NH-]C(c1ccccc1)C([NH-])c1ccccc1.[Pt+2]` (stereo not drawn), the T/C (dose: 3.12 mg/kg/injection, schedule: Q04DX002 (ip), vehicle: saline) was 114 % of control and 160 % of control and the T/C (dose: 50.0 mg/kg/injection, schedule: Q04DX002 (ip), vehicle: saline) was 120 % of control and 169 % of control.

In the case of `CC([NH-])CC(C)[NH-].[Br][Pt+2][Br]` (stereo not drawn), the T/C [2] is reported as 190 % of control [sample A] and 93 % of control [sample B] and 174 % of control [sample C].

`CC(=O)OCN(C)N=Nc1ccc(C(C)=O)cc1` was tested, and the T/C (dose: 240.0 mg/kg/injection, schedule: Q01DX005 (ip), vehicle: Klucel (hydroxypropylcellulose) (HPC)) was 101 % of control, 167 % of control, 191 % of control.
